Some of the results follow.
Experiments:
Experiment in all cases: glycan array binding signal (z-score within array); higher = stronger binding
Details in all cases: glycan notation: IUPAC condensed, linker removed
[1] = target: Neu5Ac(a2-3)Gal(b1-3)[Fuc(a1-4)]GlcNAc(b1-3)Gal(b1-4)[Fuc(a1-3)]GlcNAc
Summary of the method: (§1)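 From the Consortium for Functional Glycomics database, 3228 arrays were curated, keeping only those whose protein sequence was available. Binding is given as a within-array Z-score averaged across arrays sharing a protein sequence and across linkers. Negative Z-scores can be read as non-binding.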

[2] = target: Neu5Ac(a2-3)Gal(b1-3)[Neu5Ac(a2-3)Gal(b1-4)]GlcNAc
Summary of the method: as §1

[3] = target: Neu5Ac(a2-3)Gal(b1-3)[Neu5Ac(a2-6)]GalNAc
Summary of the method: as §1

[4] = target: Neu5Ac(a2-3)Gal(b1-4)Glc
Summary of the method: as §1

[5] = target: Neu5Ac(a2-3)Gal(b1-4)GlcNAc
Summary of the method: as §1

[6] = target: Neu5Ac(a2-3)Gal(b1-4)GlcNAc(b1-2)Man(a1-3)[GlcNAc(b1-2)Man(b1-4)GlcNAc(b1-2)Man(a1-6)]Man(b1-4)GlcNAc(b1-4)GlcNAc
Summary of the method: as §1

[7] = target: Neu5Ac(a2-3)Gal(b1-4)GlcNAc(b1-2)Man(a1-3)[Neu5Ac(a2-6)Gal(b1-4)GlcNAc(b1-2)Man(a1-6)]Man(b1-4)GlcNAc(b1-4)GlcNAc
Summary of the method: as §1

[8] = target: Neu5Ac(a2-3)Gal(b1-4)GlcNAc(b1-3)Gal(b1-3)GlcNAc
Summary of the method: as §1

[9] = target: Neu5Ac(a2-3)Gal(b1-4)GlcNAc(b1-3)Gal(b1-4)GlcNAc
Summary of the method: as §1

[10] = target: Neu5Ac(a2-3)Gal(b1-4)GlcNAc(b1-3)Gal(b1-4)GlcNAc(b1-3)Gal(b1-4)GlcNAc
Summary of the method: as §1

[11] = target: Neu5Ac(a2-3)Gal(b1-4)GlcNAc(b1-3)Gal(b1-4)[Fuc(a1-3)]GlcNAc
Summary of the method: as §1

[12] = target: Neu5Ac(a2-3)Gal(b1-4)GlcNAc(b1-6)[Gal(b1-3)]GalNAc
Summary of the method: as §1

[13] = target: Neu5Ac(a2-3)Gal(b1-4)GlcNAc(b1-6)[Neu5Ac(a2-3)Gal(b1-3)]GalNAc
Summary of the method: as §1

[14] = target: Neu5Ac(a2-3)Gal(b1-4)GlcNAc6S
Summary of the method: as §1

[15] = target: Neu5Ac(a2-3)Gal(b1-4)[Fuc(a1-3)]GlcNAc
Summary of the method: as §1

[16] = target: Neu5Ac(a2-3)Gal(b1-4)[Fuc(a1-3)]GlcNAc(b1-3)Gal
Summary of the method: as §1

[17] = target: Neu5Ac(a2-3)Gal(b1-4)[Fuc(a1-3)]GlcNAc(b1-3)Gal(b1-4)GlcNAc
Summary of the method: as §1

[18] = target: Neu5Ac(a2-3)Gal(b1-4)[Fuc(a1-3)]GlcNAc(b1-3)Gal(b1-4)[Fuc(a1-3)]GlcNAc(b1-3)Gal(b1-4)[Fuc(a1-3)]GlcNAc
Summary of the method: as §1

[19] = target: Neu5Ac(a2-3)Gal(b1-4)[Fuc(a1-3)]GlcNAc(b1-6)[Gal(b1-3)]GalNAc
Summary of the method: as §1

[20] = target: Neu5Ac(a2-3)Gal(b1-4)[Fuc(a1-3)]GlcNAc6S
Summary of the method: as §1

[21] = target: Neu5Ac(a2-3)Gal6S(b1-4)GlcNAc
Summary of the method: as §1

[22] = target: Neu5Ac(a2-3)Gal6S(b1-4)[Fuc(a1-3)]GlcNAc
Summary of the method: as §1

[23] = target: Neu5Ac(a2-3)GalNAc
Summary of the method: as §1

[24] = target: Neu5Ac(a2-3)GalNAc(b1-4)GlcNAc
Summary of the method: as §1

[25] = target: Neu5Ac(a2-3)[GalNAc(b1-4)]Gal(b1-4)Glc
Summary of the method: as §1

[26] = target: Neu5Ac(a2-3)[GalNAc(b1-4)]Gal(b1-4)GlcNAc
Summary of the method: as §1

[27] = target: Neu5Ac(a2-3)[Neu5Ac(a2-6)]GalNAc
Summary of the method: as §1

[28] = target: Neu5Ac(a2-6)Gal
Summary of the method: as §1

[29] = target: Neu5Ac(a2-6)Gal(b1-4)Glc
Summary of the method: as §1

[30] = target: Neu5Ac(a2-6)Gal(b1-4)GlcNAc
Summary of the method: as §1

[31] = target: Neu5Ac(a2-6)Gal(b1-4)GlcNAc(b1-2)Man(a1-3)[Gal(b1-4)GlcNAc(b1-2)Man(a1-6)]Man(b1-4)GlcNAc(b1-4)GlcNAc
Summary of the method: as §1

[32] = target: Neu5Ac(a2-6)Gal(b1-4)GlcNAc(b1-2)Man(a1-3)[GlcNAc(b1-2)Man(a1-6)]Man(b1-4)GlcNAc(b1-4)GlcNAc
Summary of the method: as §1

[33] = target: Neu5Ac(a2-6)Gal(b1-4)GlcNAc(b1-2)Man(a1-3)[GlcNAc(b1-2)Man(b1-4)GlcNAc(b1-2)Man(a1-6)]Man(b1-4)GlcNAc(b1-4)GlcNAc
Summary of the method: as §1

[34] = target: Neu5Ac(a2-6)Gal(b1-4)GlcNAc(b1-2)Man(a1-3)[Neu5Ac(a2-6)Gal(b1-4)GlcNAc(b1-2)Man(a1-6)]Man(b1-4)GlcNAc(b1-4)GlcNAc
Summary of the method: as §1

[35] = target: Neu5Ac(a2-6)Gal(b1-4)GlcNAc(b1-2)Man(a1-6)[Gal(b1-4)GlcNAc(b1-2)Man(a1-3)]Man(b1-4)GlcNAc(b1-4)GlcNAc
Summary of the method: as §1

[36] = target: Neu5Ac(a2-6)Gal(b1-4)GlcNAc(b1-2)Man(a1-6)[GlcNAc(b1-2)Man(a1-3)]Man(b1-4)GlcNAc(b1-4)GlcNAc
Summary of the method: as §1

[37] = target: Neu5Ac(a2-6)Gal(b1-4)GlcNAc(b1-3)Gal(b1-4)GlcNAc
Summary of the method: as §1

[38] = target: Neu5Ac(a2-6)Gal(b1-4)GlcNAc(b1-3)Gal(b1-4)[Fuc(a1-3)]GlcNAc(b1-3)Gal(b1-4)[Fuc(a1-3)]GlcNAc
Summary of the method: as §1

[39] = target: Neu5Ac(a2-6)Gal(b1-4)GlcNAc6S
Summary of the method: as §1

[40] = target: Neu5Ac(a2-6)GalNAc
Summary of the method: as §1

[41] = target: Neu5Ac(a2-6)GalNAc(b1-4)GlcNAc
Summary of the method: as §1

[42] = target: Neu5Ac(a2-8)Neu5Ac
Summary of the method: as §1

[43] = target: Neu5Ac(a2-8)Neu5Ac(a2-3)Gal(b1-4)Glc
Summary of the method: as §1

[44] = target: Neu5Ac(a2-8)Neu5Ac(a2-3)[GalNAc(b1-4)]Gal(b1-4)Glc
Summary of the method: as §1

[45] = target: Neu5Ac(a2-8)Neu5Ac(a2-8)Neu5Ac
Summary of the method: as §1

[46] = target: Neu5Ac(a2-8)Neu5Ac(a2-8)Neu5Ac(a2-3)Gal(b1-4)Glc
Summary of the method: as §1

[47] = target: Neu5Ac(a2-8)Neu5Ac(a2-8)Neu5Ac(a2-3)[GalNAc(b1-4)]Gal(b1-4)Glc
Summary of the method: as §1

[48] = target: Neu5Ac(a2-8)Neu5Ac(a2-8)Neu5Ac(a2-8)Neu5Ac(a2-3)[GalNAc(b1-4)]Gal(b1-4)Glc
Summary of the method: as §1

[49] = target: Neu5Ac(b2-6)Gal(b1-4)GlcNAc
Summary of the method: as §1

[50] = target: Neu5Ac(b2-6)GalNAc
Summary of the method: as §1

[51] = target: Neu5Ac9Ac(a2-6)Gal(b1-4)GlcNAc
Summary of the method: as §1

[52] = target: Neu5Gc(a2-3)Gal(b1-3)GlcNAc
Summary of the method: as §1

[53] = target: Neu5Gc(a2-3)Gal(b1-3)[Fuc(a1-4)]GlcNAc
Summary of the method: as §1

[54] = target: Neu5Gc(a2-3)Gal(b1-4)Glc
Summary of the method: as §1

[55] = target: Neu5Gc(a2-3)Gal(b1-4)GlcNAc
Summary of the method: as §1

[56] = target: Neu5Gc(a2-3)Gal(b1-4)[Fuc(a1-3)]GlcNAc
Summary of the method: as §1

[57] = target: Neu5Gc(a2-6)Gal(b1-4)GlcNAc
Summary of the method: as §1

[58] = target: Neu5Gc(a2-6)GalNAc
Summary of the method: as §1

[59] = target: Neu5Gc(b2-6)Gal(b1-4)GlcNAc
Summary of the method: as §1

B1: L-Selectin (Homo sapiens), P14151 (protein)
chain: MIFPWKCQSTQRDLWNIFKLWGWTMLCCDFLAHHGTDCWTYHYSEKPMNWQRARRFCRDNYTDLVAIQNKAEIEYLEKTLPFSRSYYWIGIRKIGGIWTWVGTNKSLTEEAENWGDGEPNNKKNKEDCVEIYIKRNKDAGKWNDDACHKLKAALCYTASCQPWSCSGHGECVEIINNYTCNCDVGYYGPQCQFVIQCEPLEAPELGTMDCTHPLGNFSFSSQCAFSCSEGTNLTGIEETTCGPFGNWSSPEPTCQVIQCEPLSAPDLGIMNCSHPLASFSFTSACTFICSEGTELIGKKKTICESSGIWSNPSPICQKLDKSFSMIKEGDYNPLFIPVAVMVTAFSGLAFIIWLARRLKKGKKSKRSMNDPY
[1]
  glycan array binding signal (z-score): -0.02
[2]
  glycan array binding signal (z-score): -0.044
[3]
  glycan array binding signal (z-score): -0.262
[4]
  glycan array binding signal (z-score): -0.207
[5]
  glycan array binding signal (z-score): -0.215
[6]
  glycan array binding signal (z-score): -0.315
[7]
  glycan array binding signal (z-score): -0.085
[8]
  glycan array binding signal (z-score): 0.295
[9]
  glycan array binding signal (z-score): -0.338
[10]
  glycan array binding signal (z-score): -0.105
[11]
  glycan array binding signal (z-score): 0.477
[12]
  glycan array binding signal (z-score): -0.172
[13]
  glycan array binding signal (z-score): -0.007
[14]
  glycan array binding signal (z-score): 0.047
[15]
  glycan array binding signal (z-score): 0.145
[16]
  glycan array binding signal (z-score): -0.314
[17]
  glycan array binding signal (z-score): -0.203
[18]
  glycan array binding signal (z-score): -0.321
[19]
  glycan array binding signal (z-score): -0.1
[20]
  glycan array binding signal (z-score): 9.18
[21]
  glycan array binding signal (z-score): -0.202
[22]
  glycan array binding signal (z-score): -0.028
[23]
  glycan array binding signal (z-score): -0.022
[24]
  glycan array binding signal (z-score): -0.143
[25]
  glycan array binding signal (z-score): -0.363
[26]
  glycan array binding signal (z-score): -0.275
[27]
  glycan array binding signal (z-score): -0.297
[28]
  glycan array binding signal (z-score): -0.205
[29]
  glycan array binding signal (z-score): -0.132
[30]
  glycan array binding signal (z-score): -0.237
[31]
  glycan array binding signal (z-score): 0.151
[32]
  glycan array binding signal (z-score): -0.112
[33]
  glycan array binding signal (z-score): -0.225
[34]
  glycan array binding signal (z-score): -0.319
[35]
  glycan array binding signal (z-score): -0.253
[36]
  glycan array binding signal (z-score): 0.096
[37]
  glycan array binding signal (z-score): -0.118
[38]
  glycan array binding signal (z-score): 0.132
[39]
  glycan array binding signal (z-score): -0.21
[40]
  glycan array binding signal (z-score): -0.208
[41]
  glycan array binding signal (z-score): -0.333
[42]
  glycan array binding signal (z-score): -0.193
[43]
  glycan array binding signal (z-score): -0.173
[44]
  glycan array binding signal (z-score): -0.123
[45]
  glycan array binding signal (z-score): 0.098
[46]
  glycan array binding signal (z-score): -0.259
[47]
  glycan array binding signal (z-score): -0.314
[48]
  glycan array binding signal (z-score): -0.382
[49]
  glycan array binding signal (z-score): -0.244
[50]
  glycan array binding signal (z-score): -0.324
[51]
  glycan array binding signal (z-score): 0.073
[52]
  glycan array binding signal (z-score): -0.13
[53]
  glycan array binding signal (z-score): 2.25
[54]
  glycan array binding signal (z-score): 0.202
[55]
  glycan array binding signal (z-score): -0.056
[56]
  glycan array binding signal (z-score): 0.145
[57]
  glycan array binding signal (z-score): -0.23
[58]
  glycan array binding signal (z-score): -0.346
[59]
  glycan array binding signal (z-score): -0.247
